The values below come from PubChem BioAssay (NCI).

Molecules are shown by their SMILES.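 In this assay, cells in 96-well plates receive the compound at five concentrations for 48 hours. Endpoints are linearly interpolated between the surrounding concentrations. The concentration for 50% growth inhibition is given as GI50. TGI: concentration producing complete growth inhibition.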

The test has as its system NCI-H322M lung. Description: DTP human tumour cell line panel, 48 h.
The term GI50 denotes the concentration at which growth is held to half of that of the control. The term TGI denotes the concentration at which net growth stops. With `C#C[C@]1(O)CC[C@H]2[C@@H]3CC=C4c5sc(N=C(N)N)nc5CC[C@]4(C)[C@H]3CC[C@@]21C`, the GI50 is 1.39 µM and the total growth inhibition concentration (TGI) came to 2.7 µM.

For `CC(=O)/C=C/C1=C(c2cc3ccccc3s2)c2ccccc2CC1`, the GI50 was 54.4 µM and the concentration for total growth inhibition (TGI) was more than 100 µM.

The molecule `O=c1ccccc2cccc(O)c12` yielded a TGI of more than 100 µM.

As for `CC(C)OP(=O)(CN(C)/C(F)=N\C(F)(F)F)OC(C)C`, the concentration for total growth inhibition (TGI) was more than 100 µM.

As for `CCc1c2c(nc3cc4c(cc13)OCO4)-c1cc3c(c(=O)n1C2)COC(=O)[C@@]3(CC)OC(=O)CN`, the GI50 is less than 0.0124 µM and the TGI stood at 3.52 µM.

Consider `c1ccc(C2SCC3=Nc4ccccc4CN32)cc1` (stereo not drawn), for which the concentration for total growth inhibition (TGI) was more than 100 µM.

As to `Cc1cc(N(CCC#N)CCC#N)ccc1/C(N=Nc1cccc([N+](=O)[O-])c1)=N/NC(=O)c1cc(Cl)ccc1O`, the TGI is 62 µM.

Take `O=c1cc(Cl)nc[nH]1`: the TGI is more than 100 µM.

Take `O=C1NC2(CCCCC2)N=C2C(Cl)CCCC12Cl` (stereo not drawn): the total growth inhibition concentration (TGI) was more than 100 µM.

In turn, `CC(C)C(C/C=C1/CC(CO)(COC(=O)CC(C(C)C)C(C)C)OC1=O)C(C)C` (stereo not drawn) returned a TGI of 23.2 µM.

`C=C=C(C)[Si](C)(C)C` came in with a TGI of more than 100 µM.

With `CCCCC(=O)N/N=C/c1cc(I)cc(I)c1O`, the GI50 is 3.49 µM and the TGI stood at 26.9 µM.

In turn, `CCC1CC2CN3CCc4c([nH]c5c(-c6c(OC)ccc7c8c([nH]c67)[C@]6(C(=O)OC)CC7CC(CC)C6N(CC8)C7)c(O)ccc45)[C@](C(=O)OC)(C2)C13` (stereo partly drawn) came in with a concentration for total growth inhibition (TGI) of 34.5 µM. In other words, the double-digit micromolar range.

`O=Cc1ccc(-c2ccc(-c3ccc(C=O)s3)o2)s1`: the concentration for total growth inhibition (TGI) is more than 100 µM.

Turning to `CC(=O)OCC1OC(n2c(N)c(C#N)c(-c3ccccc3)c(C#N)c2=S)C(OC(C)=O)C(OC(C)=O)C1OC(C)=O` (stereo not drawn), the total growth inhibition concentration (TGI) is more than 100 µM.

In the case of `CC(C)C(=O)N[C@@H](C)C(=O)N(Cc1ccc2ccccc2c1)N=O`, the TGI is more than 100 µM.

`CC(=O)c1ccc(Oc2ccc(/C(C)=N\N=C(N)N)cc2)cc1` registered a total growth inhibition concentration (TGI) of 13.6 µM.

With `CC1(c2ccc(Cl)cc2)CC(c2ccc(Cl)cc2)=C(C#N)C(=C(C#N)C#N)N1` (stereo not drawn), the concentration for total growth inhibition (TGI) stood at 37.6 µM.

Regarding `Cn1c(COC(=O)N2CCCCC2)nc2c(N3CCOCC3)nc(-c3ccccc3)nc21`, the GI50 is 1.47 µM and the TGI came out at 2.97 µM.

On to `COC(=O)CCC(=O)c1c(C)[nH]c(/C=C2\N=C(c3ccc[nH]3)C=C2OC)c1C`, for which the GI50 was 11.6 µM and the total growth inhibition concentration (TGI) amounted to 24.2 µM.

As for `COc1cnc2c(c1)C(=O)c1c-2n(CCCn2ccnc2)c(=O)c2cc(Cl)ccc12`, the GI50 was 0.124 µM and the total growth inhibition concentration (TGI) was more than 100 µM.

`ClCCN(CCCl)c1ccc(-n2cnc3c(Cl)ncnc32)cc1`: the GI50 was 1.92 µM and the TGI turned out to be 3.55 µM.

`C/C(=N\Nc1ccc([N+](=O)[O-])cc1[N+](=O)[O-])c1ccc2ccccc2n1` registered a TGI of more than 100 µM.

Consider `Cc1ccc(C)c(NC(=O)c2cc(-c3ccc([N+](=O)[O-])cc3)nc(N)n2)c1`, for which the TGI was more than 100 µM.

In turn, `O=c1c2ccc3cccc4c(=O)cc(c5ccccc15)-c2c34` had a total growth inhibition concentration (TGI) of more than 100 µM.

As to `COC(OC)c1cccc2c1C1(O)CCC3(CC21)OCCCCO3` (stereo not drawn), the TGI is more than 100 µM.

As for `CCOc1ccccc1/C=C1\NC(=O)N(/C=C2\C(=O)Oc3ccccc3C2=O)C1=O`, the TGI is more than 100 µM.

As for `COc1ccc(C(O)CNC(=O)c2ccccc2)cc1` (stereo not drawn), the total growth inhibition concentration (TGI) is more than 100 µM.

In turn, `N=C(c1ccccc1)N(O)C1CCCCC1` displayed a TGI of more than 100 µM.

For `O=C(COc1cccc(/C=C2\COc3ccccc3C2=O)c1)Nc1nccs1`, the GI50 was 5.02 µM and the TGI came out at 17.5 µM.

With `COc1ccc2[nH]cc(-c3nc(-c4cn(C)c5ccncc45)cs3)c2c1`, the GI50 is 1.87 µM and the concentration for total growth inhibition (TGI) stood at 3.47 µM.

In turn, `O=[N+]([O-])c1ccccc1N=Nc1c(O)[nH]c2ccccc12` had a total growth inhibition concentration (TGI) of more than 100 µM.

`Cc1csc2nc(-c3ccc([N+](=O)[O-])cc3)c(/C=N/N=C(N)N)n12` returned a concentration for total growth inhibition (TGI) of 3.5 µM.

For `CCOC(=O)CC1(O)C=CC(=O)C=C1`, the GI50 is 3.23 mg/L and the TGI came to 6.31 mg/L.

Regarding `CC(NS(C)(=O)=O)c1ccccc1` (stereo not drawn), the TGI is more than 100 µM.

Consider `O=C1Nc2ccccc2C1Cc1ccccc1` (stereo not drawn), for which the TGI was more than 100 µM.

`CC[C@@]1(O)C(=O)OCc2c1cc1n(c2=O)Cc2c-1nc1ccccc1c2CC[Si](C)(C)C` yielded a TGI of more than 100 µM.

For the molecule `CCC(Sc1nnc2c3ccccc3n(CC)c2n1)C(=O)Nc1ccccc1OC` (stereo not drawn), the GI50 was 3.18 µM and the TGI is more than 100 µM.

As for `O=C1CCCc2c1c1c(n2Cc2ccccc2)-c2ccccc2C1=O`, the TGI came to 30.5 µM.

`O=C(CN1CCN(C(=O)OCc2ccccc2)CCN(CC(=O)N2CCCCC2)CCN(C(=O)OCc2ccccc2)CC1)N1CCCCC1` yielded a total growth inhibition concentration (TGI) of more than 47 µM.

`COC(=O)CC1(CNC(=O)OCc2ccccc2)OCCO1` registered a TGI of more than 100 µM.

`Cc1cc(NS(=O)(=O)c2ccc(NC(=O)c3cccc4c(N)c5ccccc5nc34)cc2)no1` gave a TGI of 43.4 µM.

With `CCN(CC)CCOc1ccc(/C=C2\CC3C4CCC5=CC(=O)CC[C@]5(C)C4CC[C@]3(C)C2=O)cc1OC` (stereo partly drawn), the GI50 was 3.18 µM and the total growth inhibition concentration (TGI) came to 6.6 µM.

Regarding `O=C1C=C(Nc2ccccc2C(=O)CC(=O)C(=O)Nc2cccc(C(F)(F)F)c2)c2ccccc2C1=O`, the TGI was more than 92.3 µM.

`C1COC(NC(C2CC2)C2CC2)=N1` registered a concentration for total growth inhibition (TGI) of more than 100 µM.

`CN1CCN(c2ccc3c4c(cccc24)C(=O)N(CCN2CCN(CCCN4CCN(CCN5C(=O)c6cccc7c(N8CCN(C)CC8)ccc(c67)C5=O)CC4)CC2)C3=O)CC1`: the GI50 is 4.45 µM and the concentration for total growth inhibition (TGI) came to 11.9 µM.

For `COc1cc(CSc2nc3ccc(C)cc3c(=O)n2Cc2ccccc2)cc(OC)c1OC`, the GI50 is 7.26 µM and the TGI is more than 100 µM.

Take `O=S1(=O)CCN(Cc2ccccn2)CC1`: the TGI is more than 100 µM.

In turn, `CC(=O)N1CC2Nc3ccccc3C2CC1CO` (stereo not drawn) registered a TGI of more than 100 µM.

`O=C(CSc1nc(=O)[nH]c2nc[nH]c12)Nc1ccccc1` displayed a TGI of more than 100 µM.

Molecule `N=C(N)SCCc1cn2ccccc2n1` displayed a concentration for total growth inhibition (TGI) of more than 100 µM.

As to `O=C(O)/C(=C/c1ccccc1[N+](=O)[O-])c1ccccc1`, the total growth inhibition concentration (TGI) is more than 100 µM.

In the case of `CN1CCN(c2ccc3nc(-c4cc(C(C)(C)C)c(O)c(C(C)(C)C)c4)[nH]c3c2)CC1`, the GI50 was 2.42 µM and the total growth inhibition concentration (TGI) was found to be 5.93 µM.

In turn, `Cc1cc2[nH]c3c(C#N)c(-c4ccccc4)c(N=Nc4cccc(C(F)(F)F)c4)c(=O)n3c2cc1C` came in with a total growth inhibition concentration (TGI) of more than 100 µM.

On to `CC(c1ccc(Br)cc1)C(C(=O)O)C(=O)O` (stereo not drawn), for which the concentration for total growth inhibition (TGI) was more than 100 µM.

Turning to `Nc1ccc(Nc2nc(F)nc(-c3c4ccccc4c4n3CCS4)n2)cc1`, the total growth inhibition concentration (TGI) was more than 100 µM.

`COc1cc(N=NN(C)C)c(C(C)c2c3cc(OC)c(OC)cc3cc[n+]2C)cc1OC` (stereo not drawn) returned a TGI of more than 100 µM.

As to `CC(=O)OC1CCn2nnc(COC(=O)NC(C)C)c21` (stereo not drawn), the total growth inhibition concentration (TGI) is more than 100 µM.

Regarding `CC(C)=CCc1c(O)cc(/C=C/c2cc(O)c3c(c2)C[C@@H]2C(C)(C)[C@H](O)[C@H](O)C[C@@]2(C)O3)cc1O`, the GI50 was 1.26 µM and the TGI was determined as 5.49 µM.

`C=C1c2c(cc3c(c2O)c(=O)c2ccccc2n3C)OC1(C)C` gave a concentration for total growth inhibition (TGI) of more than 100 µM.

Regarding `CN1C(=O)CNC(=O)[C@H](NC(=O)c2nc3ccccc3cc2O)CSSC[C@H]1C(=O)NCCc1nc2ccccc2cc1O`, the GI50 was more than 61.8 µM and the concentration for total growth inhibition (TGI) was more than 100 µM.

Take `N#Cc1ccccc1C#C/C=C\C#Cc1ccc(OCCCNC(=O)c2cc3ccccc3[nH]2)cc1`: the GI50 was 27.5 µM and the concentration for total growth inhibition (TGI) was 93.9 µM.

With `O=P(O)(O)C(CSc1ccccc1)P(=O)(O)O`, the total growth inhibition concentration (TGI) is more than 100 µM.

Turning to `CO[C@@H]1[C@@H](OC2OC(C)C(OC3CC(C)(O)C(OC(=O)CC(C)C)C(C)O3)C(N(C)C)C2O)[C@@H](CC=O)C[C@@H](C)C(=O)/C=C/C2O[C@H]2C[C@@H](C)OC(=O)C[C@H]1OC(C)=O` (stereo partly drawn), the TGI was 57.5 µM.

The molecule `C=C1CC(CCCl)(c2ccccc2)OC1=O` (stereo not drawn) came in with a TGI of more than 100 µM.

As to `NC1CC(=O)c2csc(Br)c21` (stereo not drawn), the TGI is more than 83 µM.

Take `Cn1c(CCC#N)nc2ccc(Br)cc2c1=O`: the TGI is more than 100 µM.

`CC(=O)O[C@@H]1CO[C@H]2O[C@H]3[C@@H](C(C=O)=C[C@H](O)[C@@H]4C5=C(C(C)C)CC[C@]5(C)CC[C@@]34C)[C@@]2(O)C1=O` came in with a TGI of 2.6 µM.

`Nc1nc(Cl)cc(NCC2(CO)CCC(Cc3ccccc3)C2)n1` (stereo not drawn) displayed a concentration for total growth inhibition (TGI) of more than 100 µM.

With `[Cu+2].[O-]c1ccc2ccccc2c1N=Nc1ccccc1.[O-]c1ccc2ccccc2c1N=Nc1ccccc1`, the TGI was more than 100 µM.

`O=C1c2cc3ccccc3cc2C2(c3ccc(Cl)cc3)N[C@H]3CCCC[C@@H]3N12` (stereo partly drawn) yielded a concentration for total growth inhibition (TGI) of 42.5 µM.

As to `NC1C/C(=N\O)c2c(I)sc(I)c21` (stereo not drawn), the TGI came out at 31.1 µM.

On to `COc1ccc(C(c2ccc(C(C)C)cc(=O)c2O)c2c(O)cc3oc(-c4ccccc4)cc(=O)c3c2O)cc1` (stereo not drawn), for which the TGI came out at 89.7 µM. This TGI is about 2.9-fold higher than that of the molecule before.

As for `COC(=O)C(CCC1C=CCC1)N=Cc1ccccc1` (stereo not drawn), the TGI is more than 100 µM.

Turning to `CC(=O)Nc1ccc(CNc2cc(=O)[nH]c(=O)[nH]2)cc1`, the TGI was more than 100 µM.

Take `CCN(CC)c1ccc2c(c1)Oc1nc(N)c(C#N)c(N)c1C2Sc1ccc(SC)cc1` (stereo not drawn): the GI50 is 1.72 µM and the concentration for total growth inhibition (TGI) was determined as 3.14 µM.

In turn, `CC(=O)[O-].CC(=O)[O-].O=C(N/N=C/c1cc(Cl)cc(Cl)c1[OH2+])c1ccncc1.[Co+2]` displayed a TGI of more than 100 µM.

In the case of `CC(ONC(=O)c1cc(C(F)(F)F)cc(C(F)(F)F)c1)C(=O)Nc1ccc(Cl)cc1` (stereo not drawn), the GI50 was 6.14 µM and the TGI was more than 80.6 µM.

In the case of `COc1cc(-c2[nH]ccc2Cl)oc1C1=C2N=C3C=C2C(C(C)C)C1CCCCCCCC3` (stereo not drawn), the concentration for total growth inhibition (TGI) came out at 5.35 µM.

As for `O=C1C2C=CC1C1C(=O)OC(=O)C21` (stereo not drawn), the TGI was more than 100 µM.

Regarding `COc1ccc2c3c1OC1C(=O)C=CC4(O)C(C2)NCC[C@@]314` (stereo partly drawn), the TGI came out at 21.1 µM.

In the case of `CCCN(CCC)c1ccc(CO)c(C)c1`, the GI50 is more than 100 µM and the TGI was more than 100 µM.

`NNC(=O)c1c(Cl)c(Cl)c(Cl)c(Cl)c1-c1nc2ccccc2[nH]1` yielded a TGI of 88.2 µM. This lies in the double-digit micromolar range.

In the case of `COc1ccc(O)c(C(=O)c2ccc(C(=O)O[C@@H]3CCCNC[C@H]3NC(=O)c3ccncc3)cc2)c1F`, the GI50 was 2.21 µM and the TGI was more than 25 µM.

`O=C(O)CSc1cc(-c2ccccc2)nc2ccccc12` had a TGI of more than 100 µM.
